# Experimental data from publication PMC6765112, “Specificity of MYB interactions relies on motifs in ordered and disordered contexts” (Nucleic Acids Research, 2019).
# The chains behind the UniProt entries cited, without tags or fusion partners.
# UniProt Q9FIP9: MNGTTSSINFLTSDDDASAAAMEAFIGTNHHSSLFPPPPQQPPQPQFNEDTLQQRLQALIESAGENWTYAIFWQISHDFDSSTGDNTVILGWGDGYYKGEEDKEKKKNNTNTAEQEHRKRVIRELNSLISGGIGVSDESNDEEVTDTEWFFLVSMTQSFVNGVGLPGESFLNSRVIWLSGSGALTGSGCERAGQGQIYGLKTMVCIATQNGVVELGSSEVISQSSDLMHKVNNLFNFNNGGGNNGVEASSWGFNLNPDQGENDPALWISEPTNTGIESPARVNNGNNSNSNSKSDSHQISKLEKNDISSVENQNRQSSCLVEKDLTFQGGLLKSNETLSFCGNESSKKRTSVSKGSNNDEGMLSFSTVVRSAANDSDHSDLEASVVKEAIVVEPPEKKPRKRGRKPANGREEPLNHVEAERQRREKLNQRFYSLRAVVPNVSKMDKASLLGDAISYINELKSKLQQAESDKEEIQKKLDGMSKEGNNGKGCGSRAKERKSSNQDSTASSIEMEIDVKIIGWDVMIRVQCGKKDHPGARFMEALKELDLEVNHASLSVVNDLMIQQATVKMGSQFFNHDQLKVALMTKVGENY
# UniProt O49687: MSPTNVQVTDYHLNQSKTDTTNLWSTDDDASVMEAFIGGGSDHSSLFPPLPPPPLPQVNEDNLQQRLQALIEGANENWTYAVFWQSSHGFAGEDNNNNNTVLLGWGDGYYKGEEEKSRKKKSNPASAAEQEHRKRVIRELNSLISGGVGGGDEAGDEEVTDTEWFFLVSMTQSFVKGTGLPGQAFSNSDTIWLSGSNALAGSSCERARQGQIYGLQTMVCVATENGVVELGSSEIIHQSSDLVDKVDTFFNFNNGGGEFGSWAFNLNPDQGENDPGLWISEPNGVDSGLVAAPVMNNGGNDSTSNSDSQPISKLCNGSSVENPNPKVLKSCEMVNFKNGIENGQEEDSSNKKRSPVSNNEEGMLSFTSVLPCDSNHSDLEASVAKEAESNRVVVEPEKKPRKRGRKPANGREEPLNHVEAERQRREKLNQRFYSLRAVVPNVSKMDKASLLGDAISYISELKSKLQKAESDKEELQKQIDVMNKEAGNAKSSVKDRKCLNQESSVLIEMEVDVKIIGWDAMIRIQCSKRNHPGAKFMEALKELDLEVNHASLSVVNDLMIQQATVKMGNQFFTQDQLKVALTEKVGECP
# Residue numbers refer to the chain shown, from its start. Names may count otherwise. Results are given in words; binding and its absence hold for the method and conditions named. In cells and extracts the contact can be indirect. Some results given as binding are weak or reduced against the parent protein; the word gives no strength.
# B1: MYB113 (protein, UniProt Q9FNV9 1-246)
# chain: MGESPKGLRKGTWTTEEDILLRQCIDKYGEGKWHRVPLRTGLNRCRKSCRLRWLNYLKPSIKRGKLCSDEVDLVLRLHKLLGNRWSLIAGRLPGRTANDVKNYWNTHLSKKHDERCCKTKMINKNITSHPTSSAQKIDVLKPRPRSFSDKNSCNDVNILPKVDVVPLHLGLNNNYVCESSITCNKDEQKDKLININLLDGDNMWWESLLEADVLGPEATETAKGVTLPLDFEQIWARFDEETLELN
# B2: MYB29 (G120-L222) WT (domain or fragment, UniProt Q9FLR1 120-222)
# chain: GIDPVTHKPLAYDSNPDEQSQSGSISPKSLPPSSSKNVPEITSSDETPKYDASLSSKKRCFKRSSSTSKLLNKVAARASSMGTILGASIEGTLISSTPLSSCL
# B3: MYB29 (G120-L222) N191L (domain or fragment, UniProt Q9FLR1 120-222)
# chain: B2 chain with N72L
# B4: MYB29 (G120-L222) V193A (domain or fragment, UniProt Q9FLR1 120-222)
# chain: B2 chain with V74A
# B5: MYB29 (G120-L222) R196A (domain or fragment, UniProt Q9FLR1 120-222)
# chain: B2 chain with R77A
# B6: MYB29 (G120-L222) V193T (domain or fragment, UniProt Q9FLR1 120-222)
# chain: B2 chain with V74T
# B7: MYB29 (G120-L222) L190I (domain or fragment, UniProt Q9FLR1 120-222)
# chain: B2 chain with L71I
# B8: MYB29 (G120-L222) A194G (domain or fragment, UniProt Q9FLR1 120-222)
# chain: B2 chain with A75G
# B9: MYB29 (G120-L222) A194L (domain or fragment, UniProt Q9FLR1 120-222)
# chain: B2 chain with A75L
# B10: MYB29 (G120-L222) L189A (domain or fragment, UniProt Q9FLR1 120-222)
# chain: B2 chain with L70A
# B11: MYB29 (G120-L222) L190A (domain or fragment, UniProt Q9FLR1 120-222)
# chain: B2 chain with L71A
# B12: MYB29 (G120-L222) R196E (domain or fragment, UniProt Q9FLR1 120-222)
# chain: B2 chain with R77E
# B13: MYB29 (G120-L222) K188E K192E R196E (domain or fragment, UniProt Q9FLR1 120-222)
# chain: B2 chain with K69E, K73E, R77E
# B14: MYB29 (G120-L222) N191Q (domain or fragment, UniProt Q9FLR1 120-222)
# chain: B2 chain with N72Q
# B15: MYB29 (G120-L222) L190V (domain or fragment, UniProt Q9FLR1 120-222)
# chain: B2 chain with L71V
# B16: MYB29 (G120-L222) L189T V193T (domain or fragment, UniProt Q9FLR1 120-222)
# chain: B2 chain with L70T, V74T
# B17: MYB29 (G120-L222) K192A (domain or fragment, UniProt Q9FLR1 120-222)
# chain: B2 chain with K73A
# B18: MYB29 (G120-L222) A195G (domain or fragment, UniProt Q9FLR1 120-222)
# chain: B2 chain with A76G
# B19: MYB29 (G120-L222) L189T (domain or fragment, UniProt Q9FLR1 120-222)
# chain: B2 chain with L70T
# B20: MYB29 (G120-L222) L190F (domain or fragment, UniProt Q9FLR1 120-222)
# chain: B2 chain with L71F
# B21: MYB29 (G120-L222) K188E (domain or fragment, UniProt Q9FLR1 120-222)
# chain: B2 chain with K69E
# B22: MYB29 (G120-L222) N191A (domain or fragment, UniProt Q9FLR1 120-222)
# chain: B2 chain with N72A
# B23: MYB29 (G120-L222) K192E (domain or fragment, UniProt Q9FLR1 120-222)
# chain: B2 chain with K73E
# B24: MYB29 (G120-L222) K188A (domain or fragment, UniProt Q9FLR1 120-222)
# chain: B2 chain with K69A
# B25: MYB51 (protein, UniProt O49782 1-352)
# chain: MVRTPCCKAELGLKKGAWTPEEDQKLLSYLNRHGEGGWRTLPEKAGLKRCGKSCRLRWANYLRPDIKRGEFTEDEERSIISLHALHGNKWSAIARGLPGRTDNEIKNYWNTHIKKRLIKKGIDPVTHKGITSGTDKSENLPEKQNVNLTTSDHDLDNDKAKKNNKNFGLSSASFLNKVANRFGKRINQSVLSEIIGSGGPLASTSHTTNTTTTSVSVDSESVKSTSSSFAPTSNLLCHGTVATTPVSSNFDVDGNVNLTCSSSTFSDSSVNNPLMYCDNFVGNNNVDDEDTIGFSTFLNDEDFMMLEESCVENTAFMKELTRFLHEDENDVVDVTPVYERQDLFDEIDNYFG
# B26: MYB21 (protein, UniProt Q9LK95 1-226)
# chain: MEKRGGGSSGGSGSSAEAEVRKGPWTMEEDLILINYIANHGDGVWNSLAKSAGLKRTGKSCRLRWLNYLRPDVRRGNITPEEQLIIMELHAKWGNRWSKIAKHLPGRTDNEIKNFWRTRIQKYIKQSDVTTTSSVGSHHSSEINDQAASTSSHNVFCTQDQAMETYSPTPTSYQHTNMEFNYGNYSAAAVTATVDYPVPMTVDDQTGENYWGMDDIWSSMHLLNGN
# B27: MYB29 non-MYB region (G120-I336) (domain or fragment, UniProt Q9FLR1 120-336)
# chain: GIDPVTHKPLAYDSNPDEQSQSGSISPKSLPPSSSKNVPEITSSDETPKYDASLSSKKRCFKRSSSTSKLLNKVAARASSMGTILGASIEGTLISSTPLSSCLNDDFSETSQFQMEEFDPFYQSSEHIIDHMKEDISINNSEYDFSQFLEQFSNNEGEEADNTGGGYNQDLLMSDVSSTSVDEDEMMQNITGWSNYLLDHSDFNYDTSQDYDDKNFI
# B28: MYB29 DBD (residues M1-H126) (domain or fragment, UniProt Q9FLR1 1-126)
# chain: MSRKPCCVGEGLKKGAWTAEEDKKLISYIHEHGEGGWRDIPQKAGLKRCGKSCRLRWANYLKPDIKRGEFSYEEEQIIIMLHASRGNKWSVIARHLPKRTDNEIKNYWNTHLKKLLIDKGIDPVTH
# Target: MYC3 (Arabidopsis thaliana) (UniProt Q9FIP9)
# Assay: split-ubiquitin assay; chemically inducible dimerization split-ubiquitin system in yeast NMY51 TOR1-1 Δfpr1; bHLH as bait (pFKBP12), MYB as prey (pFRB); drop tests of three colonies on SD-AHLW, 2 days at 30°C; SD-AHLW+Rapa as positive control
row,binding,Binder
1,no binding,B1
2,binds,B2
3,no binding,B3
4,binds,B4
5,binds,B5
6,binds,B6
7,binds,B7
8,binds,B8
9,no binding,B9
10,binds,B10
11,no binding,B11
12,binds,B12
13,binds,B13
14,no binding,B14
15,binds,B15
16,binds,B16
17,binds,B17
18,binds,B18
19,binds,B19
20,no binding,B20
21,binds,B21
22,no binding,B22
23,binds,B23
24,binds,B24
25,binds,B25
26,no binding,B26

# Target: MYC4 (Arabidopsis thaliana) (UniProt O49687)
# Assay: as above
row,binding,Binder
1,no binding,B1
2,binds,"SKKRCFKRSSSTSKLLNKVAARASSMGTILGASIEGTLISSTPLSSCL (domain or fragment, UniProt Q9FLR1 175-222) [MYB29 (S175-L222)]"
3,binds,B2
4,binds weakly,B3
5,binds,B4
6,binds,B5
7,binds,B6
8,binds,B7
9,binds,B8
10,no binding,B9
11,binds,B10
12,no binding,B11
13,binds,B12
14,binds,B13
15,binds weakly,B14
16,binds,B15
17,binds,B16
18,binds,B17
19,binds,B18
20,binds,B19
21,binds weakly,B20
22,binds,B21
23,no binding,B22
24,binds,B23
25,binds,B24
26,binds,B27
27,binds,B25
28,no binding,B28
29,no binding,B26
